The campaign covered roughly 370,000 compounds. About 150 (0.041%) were called active. This list was built around the results that the source calls inconclusive (neither active nor inactive); the mix of calls is not that of the screen. The call rests on the fitted dose curve; in most records, active means well fitted inhibition curve with a large enough effect; inconclusive means small, poorly fitted or top-dose-only effect; inactive means flat fitted curve, though single readings scatter. Potencies of inconclusive entries are left out as doubtful fits.
Each compound was assayed against Beta-lactamase (Escherichia coli (strain K12)) (UniProt P00811) (assay: qHTS Inhibitors of AmpC Beta-Lactamase (assay with detergent)). Conditions: AmpC hydrolysis of nitrocefin, absorbance 480 nm, 0.01% Triton; series mostly up to 114 µM.
UniProt P00811, sequence (P00811 whole entry, looked up): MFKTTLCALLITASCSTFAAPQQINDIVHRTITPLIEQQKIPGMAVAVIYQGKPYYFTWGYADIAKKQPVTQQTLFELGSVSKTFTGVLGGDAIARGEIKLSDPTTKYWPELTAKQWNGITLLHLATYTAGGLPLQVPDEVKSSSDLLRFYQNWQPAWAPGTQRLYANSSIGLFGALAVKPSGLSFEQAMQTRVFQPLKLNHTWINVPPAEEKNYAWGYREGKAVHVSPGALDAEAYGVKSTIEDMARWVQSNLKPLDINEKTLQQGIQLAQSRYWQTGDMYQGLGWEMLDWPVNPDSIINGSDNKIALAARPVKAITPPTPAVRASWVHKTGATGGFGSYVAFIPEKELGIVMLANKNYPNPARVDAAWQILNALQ
In short: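 AmpC (5.3 nM in the dispensed reagent) in 20 mM phosphate pH 7.0 with 0.01% (detergent screen) or 0.0001% Triton X-100 was preincubated with compounds for 15 min at room temperature. Nitrocefin was then added from an 800 uM solution, and hydrolysis was followed at 480 nm.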
Further: nearly all actives have a fitted effect of over 25% in size.
Potency means the concentration at half of the fitted maximal effect; tags describe the fitted curve by direction and shape.

**Q.** With `Cc1ccnc2nc(C(=O)N3CCN(S(=O)(=O)c4ccccc4)CC3)nn12` as the compound, how does the Potency read?
**A.** Its Potency is inconclusive [inhibitor, full curve, poor fit].

**Q.** For `Clc1ccc(-c2nn3cnnc3s2)c(Cl)c1`, which Potency is on record?
**A.** The Potency was inconclusive [inhibitor, single point].

**Q.** For `Nc1[nH]n(-c2ccccc2)c(=O)c1N=Nc1ccccc1[N+](=O)[O-]`, which Potency is on record?
**A.** Its Potency is “inactive”.

**Q.** With `O=C(c1ccc(S(=O)(=O)N2CCCC2)cc1)N1CCN(Cc2ccc3c(c2)OCO3)CC1` as the compound, how does the Potency read?
**A.** Its Potency is inconclusive [inhibitor, single point].

**Q.** `O=C(COc1ccccc1)N1CCN(S(=O)(=O)Cc2ccccc2)CC1` was tested. Which Potency did it give?
**A.** Its Potency is inconclusive [inhibitor, full curve, poor fit].

**Q.** How did the Potency turn out when `Cn1nccc1C(=O)Nc1ccccc1C(=O)O` was run?
**A.** The Potency was inconclusive [inhibitor, full curve, poor fit].

**Q.** Which Potency does the source give for `CCC1SC(N)=NC1=O` (stereo not drawn) here?
**A.** The Potency was inconclusive [inhibitor, full curve, poor fit].

**Q.** For `CCn1c(=O)cc(O)c2ccccc21`, which Potency is on record?
**A.** The Potency was inconclusive [inhibitor, single point].

**Q.** Which Potency does the source give for `COc1cc(/C=N/NC(=O)c2ccc(N(C)S(=O)(=O)c3ccccc3)cc2)cc(OC)c1OC` here?
**A.** The Potency was inconclusive [inhibitor, full curve].

**Q.** With `O=S(=O)(c1ccc(F)cc1)N1CCC(N2CCCC2)CC1` as the compound, how does the Potency read?
**A.** The Potency was inconclusive [inhibitor, full curve].

**Q.** Which Potency does the source give for `CC1CCN(CC(=O)Nc2ccc(Br)cc2[N+](=O)[O-])CC1` here?
**A.** Its Potency is inconclusive [inhibitor, full curve, poor fit].

**Q.** `CCN(CC)S(=O)(=O)c1ccc(/C=C/C(=O)Nc2ccc(F)cc2F)cc1` was tested. Which Potency did it give?
**A.** Its Potency is inconclusive [inhibitor, single point].

**Q.** Which Potency does the source give for `COc1ccc(Oc2ccc(/C=C/C(=O)c3ccc(O)cc3)cc2[N+](=O)[O-])cc1` here?
**A.** Its Potency is inconclusive [inhibitor, full curve, poor fit].

**Q.** How did the Potency turn out when `CC(C)NC(=O)C12CC3CC(C1)CC(C(=O)NC(C)C)(C3)C2` was run?
**A.** Its Potency is inconclusive [inhibitor, single point].

**Q.** How did the Potency turn out when `C#CC1(O)CC(C)N(C)C(C)C1` (stereo not drawn) was run?
**A.** Its Potency is inconclusive [inhibitor, full curve].

**Q.** How did the Potency turn out when `COc1ccc(N2CC(NS(=O)(=O)c3ccc4ccccc4c3)CC2=O)cc1OC` (stereo not drawn) was run?
**A.** The Potency was inconclusive [inhibitor, partial curve, poor fit].

**Q.** `N#C/C(=C\c1ccc(-c2ccc(Cl)c(C(=O)O)c2)o1)c1nc2ccccc2[nH]1` was tested. Which Potency did it give?
**A.** Its Potency is “inactive”.

**Q.** How did the Potency turn out when `CC(C)n1c(N2CCN(C(=O)N3CCCCC3)CC2)nc2ccccc21` was run?
**A.** Its Potency is inconclusive [inhibitor, partial curve].

**Q.** How did the Potency turn out when `COc1cccc(-n2nnc3c(=O)n(Cc4ccccc4F)cnc32)c1` was run?
**A.** Its Potency is inconclusive [inhibitor, single point].

**Q.** Which Potency does the source give for `Cc1nnc(N2CCN(c3ccccc3)CC2)[nH]c1=O` here?
**A.** Its Potency is inconclusive [inhibitor, full curve].

**Q.** `CCOC(=O)C1CCN(S(=O)(=O)c2ccc3c(c2)CCN3C(C)=O)CC1` was tested. Which Potency did it give?
**A.** Its Potency is inconclusive [inhibitor, full curve].

**Q.** `COc1ccc(-c2cc(CNC(=O)CCl)on2)cc1` was tested. Which Potency did it give?
**A.** Its Potency is inconclusive [inhibitor, partial curve, poor fit].

**Q.** Which Potency does the source give for `CCOC(=O)c1c(NC(=S)Nc2ccc(Cl)cc2)sc2c1CCN(C)C2` here?
**A.** Its Potency is inconclusive [inhibitor, full curve, poor fit].

**Q.** Which Potency does the source give for `O=S(=O)(c1cccc(-c2nc3ccccc3s2)c1)N1CCCC1` here?
**A.** Its Potency is inconclusive [inhibitor, full curve].

**Q.** Which Potency does the source give for `Nn1c(SCc2ccccc2)nnc1-c1ccco1` here?
**A.** The Potency was inconclusive [inhibitor, full curve].

**Q.** Which Potency does the source give for `COC(=O)C(NC(C)=O)(Nc1ccccc1)C(=O)OC` here?
**A.** Its Potency is inconclusive [inhibitor, full curve, poor fit].

**Q.** `Cc1cc(C)c2nc(NNC(=O)c3ccc(S(=O)(=O)N4CCc5ccccc5C4)cc3)sc2c1` was tested. Which Potency did it give?
**A.** Its Potency is “inactive”.

**Q.** How did the Potency turn out when `Cc1ccc(S(=O)(=O)CCC(=O)Oc2ccc3c(C)cc(=O)oc3c2)cc1` was run?
**A.** The Potency was inconclusive [inhibitor, full curve, poor fit].

**Q.** `COc1cccc(CNC(=O)c2ccccc2N)c1` was tested. Which Potency did it give?
**A.** Its Potency is inconclusive [inhibitor, full curve, poor fit].

**Q.** Which Potency does the source give for `Cc1ccsc1/C=C1\Oc2cc(OCC(=O)c3ccccc3)ccc2C1=O` here?
**A.** Its Potency is inconclusive [inhibitor, full curve].

**Q.** With `Cc1cc(NC(=O)c2cccc(F)c2)ncc1NC(=O)c1ccco1` as the compound, how does the Potency read?
**A.** Its Potency is inconclusive [inhibitor, full curve, poor fit].

**Q.** With `NS(=O)(=O)c1cccc(NC(=O)c2cncc(Br)c2)c1` as the compound, how does the Potency read?
**A.** Its Potency is “inactive”.

**Q.** With `CC(OC(=O)C1CC1C)C(=O)Nc1ncc(Cl)cc1Cl` (stereo not drawn) as the compound, how does the Potency read?
**A.** Its Potency is inconclusive [inhibitor, full curve].

**Q.** For `CCOC(=O)c1ccc(NC(=O)c2ccccc2C)cc1`, which Potency is on record?
**A.** Its Potency is inconclusive [inhibitor, single point].

**Q.** Which Potency does the source give for `COc1ccc(CN2CCCC(C(=O)c3ccc(Cl)cc3)C2)c(OC)c1` (stereo not drawn) here?
**A.** The Potency was inconclusive [inhibitor, partial curve, poor fit].

**Q.** How did the Potency turn out when `COC(=O)c1ccc(OC)c(CSc2nnc(COc3cccc(C)c3)o2)c1` was run?
**A.** Its Potency is “inactive”.

**Q.** For `O=C(CCCCCN1C(=O)C2C3C=CC(C3)C2C1=O)Nc1nccs1` (stereo not drawn), which Potency is on record?
**A.** The Potency was inconclusive [inhibitor, partial curve, poor fit].

**Q.** With `Cc1ccc2[nH]c(=O)c(CN(Cc3ccco3)C(=O)c3cccs3)cc2c1` as the compound, how does the Potency read?
**A.** The Potency was inconclusive [inhibitor, single point].

**Q.** Which Potency does the source give for `COc1cccc(NC(=O)C2Cc3ccccc3CN2C(=O)c2ccco2)c1` (stereo not drawn) here?
**A.** Its Potency is “inactive”.

**Q.** `Cc1ccc(C)c(NS(=O)(=O)c2ccccc2C)c1` was tested. Which Potency did it give?
**A.** Its Potency is inconclusive [inhibitor, partial curve, poor fit].

**Q.** `O=C(CSc1nnc(C2CC2)n1Cc1ccccc1)c1cc2ccccc2o1` was tested. Which Potency did it give?
**A.** The Potency was inconclusive [inhibitor, partial curve, poor fit].

**Q.** For `Cc1ccc(C(=O)c2oc3ccccc3c2NC(=O)COc2ccc(C(C)(C)C)cc2)cc1`, which Potency is on record?
**A.** The Potency was “inactive”.

**Q.** Which Potency does the source give for `CCOC(=O)c1oc2ccccc2c1NC(=O)c1cccc(OC)c1` here?
**A.** The Potency was “inactive”.

**Q.** `Cn1c(=O)n(CC#N)c2ccccc21` was tested. Which Potency did it give?
**A.** The Potency was inconclusive [inhibitor, partial curve, poor fit].

**Q.** `CCC1(C(=O)c2ccc(Cl)cc2)C2c3ccccc3OC(=O)C21C(=O)Nc1ccccc1` (stereo not drawn) was tested. Which Potency did it give?
**A.** Its Potency is inconclusive [inhibitor, full curve, poor fit].

**Q.** With `O=C(CN1CCN(S(=O)(=O)c2ccc3ccccc3c2)CC1)NC(=O)NC1CCCCC1` as the compound, how does the Potency read?
**A.** The Potency was inconclusive [inhibitor, single point].

**Q.** Which Potency does the source give for `Cc1cc2oc(C(=O)Nc3cccnc3)c(C)c2cc1C` here?
**A.** Its Potency is inconclusive [inhibitor, full curve, poor fit].

**Q.** Which Potency does the source give for `Cc1cc(C)nc(NC(=S)Nc2cccc(Cl)c2Cl)c1` here?
**A.** The Potency was inconclusive [inhibitor, single point].

**Q.** For `CC(C)(C)N1C(=O)[C@H]2[C@@H](c3ccc(Br)cc3)N3C(=O)N(c4ccc(Br)cc4)C(=O)[C@@]3(Cc3ccccc3)[C@H]2C1=O`, which Potency is on record?
**A.** Its Potency is “inactive”.

**Q.** For `Cn1c(=O)c(=O)n(C)c2cc(S(=O)(=O)N3CCN(Cc4ccccc4)CC3)ccc21`, which Potency is on record?
**A.** The Potency was inconclusive [inhibitor, partial curve].

**Q.** `Cc1sc2ncnc(SCC(=O)NNC(=O)c3ccco3)c2c1C` was tested. Which Potency did it give?
**A.** The Potency was inconclusive [inhibitor, partial curve, poor fit].

**Q.** For `O=C(CN1C(=O)C2(SCC(=O)N2c2ccc(Cl)cc2)c2ccccc21)NCCc1ccccc1` (stereo not drawn), which Potency is on record?
**A.** Its Potency is “inactive”.

**Q.** `O=C(/C=C/C=C/c1ccc2c(c1)OCO2)N1CCCCC1` was tested. Which Potency did it give?
**A.** Its Potency is inconclusive [inhibitor, partial curve].

**Q.** Which Potency does the source give for `O=S(=O)(c1ccc(F)cc1)N1CCCC(c2nc(-c3ccc(F)cc3)no2)C1` (stereo not drawn) here?
**A.** Its Potency is inconclusive [inhibitor, partial curve].

**Q.** For `O=C(Nc1ccc(S(=O)(=O)N2CCOCC2)cc1)c1ccc(Cl)cc1Cl`, which Potency is on record?
**A.** Its Potency is inconclusive [inhibitor, full curve, poor fit].

**Q.** How did the Potency turn out when `C[C@@H]1O[C@@H](OC[C@H]2O[C@@H](Oc3c(-c4ccc(O)cc4)oc4cc(O)cc(O)c4c3=O)[C@H](O)[C@@H](O)[C@@H]2O)[C@H](O)[C@H](O)[C@H]1O` was run?
**A.** The Potency was inconclusive [inhibitor, full curve, poor fit].

**Q.** Which Potency does the source give for `O=c1c2ccccc2nc2n1CCc1c-2[nH]c2ccccc12` here?
**A.** Its Potency is inconclusive [inhibitor, full curve, poor fit].

**Q.** Which Potency does the source give for `COc1ccc(-n2c(COc3cccc(C)c3)nnc2SCC(=O)O)cc1` here?
**A.** The Potency was inconclusive [inhibitor, partial curve].

**Q.** Which Potency does the source give for `CC(=O)c1ccc(OCC(=O)N2CCCC(N3CCN(c4ccccc4C)CC3)C2)cc1` (stereo not drawn) here?
**A.** Its Potency is inconclusive [inhibitor, full curve].

**Q.** `CCn1c(SCC(=O)c2ccccc2)nnc1-c1cnccn1` was tested. Which Potency did it give?
**A.** Its Potency is “inactive”.

**Q.** How did the Potency turn out when `COc1ccc(NC(=S)N2N=CCC2c2ccccc2)cc1` (stereo not drawn) was run?
**A.** The Potency was inconclusive [inhibitor, single point].

**Q.** How did the Potency turn out when `Cc1ccc(/C=N/c2sc3c(c2C#N)CCC3)o1` was run?
**A.** Its Potency is inconclusive [inhibitor, partial curve].

**Q.** Which Potency does the source give for `CCOc1cc(CN2CCSCC2)ccc1O` here?
**A.** Its Potency is inconclusive [inhibitor, full curve].
